For this assay, the target named is T1, 人PD-1蛋白(Acro PD1-HB2F2) (human, UniProt Q15116 fragment, limits assumed).
T1 construct: Commercial recombinant human PD-1 protein coated on the ELISA plate; also called 抗原PD-1蛋白; human PD-1
The experiment in a line: ELISA, human PD-1 protein coated at 20 ng/mL, antibody titrated from 1000 ng/mL. For orientation: An ELISA detects its analyte on a solid surface through an enzyme-linked reagent.

The text below walks through data of patent publication CN115028726A (ZHEJIANG TERUISI PHARMACEUTICAL INC, dated 2022).

T1 sequence (Q15116 25-167 limits assumed): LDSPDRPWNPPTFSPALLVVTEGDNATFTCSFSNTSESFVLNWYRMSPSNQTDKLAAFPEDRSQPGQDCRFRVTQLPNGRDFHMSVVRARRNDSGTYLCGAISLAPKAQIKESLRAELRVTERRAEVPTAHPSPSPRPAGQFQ

B1: 优化纳米抗体N12 (Fc fusion)
chain: QVQLQESGGGLVQPGGSLRLSSAASGSTYLRFSMGWFRQVPGKGLEGVAAIGGDGRTSYADSVKGRFTISKDNSKNTLYLDMNSLRAEDTAVYYSAAAVLLDGSFSLLAPLVPYKYDYWGQGTLVTVSS[human IgG4 Fc with S228P (EU numbers) left out here]
Broadly, the EC50 is the concentration that produces a half-maximal response. A lower EC50 goes with greater potency. Take B1: the EC50 turned out to be 0.0153 mg/L.

B2: 优化纳米抗体N13 (Fc fusion)
chain: QVQLQESGGGLVQPGGSLRLSAAASGSTYLRFSMGWFRQVPGKGLEGVAAIGGDGRTSYADSVKGRFTISKDNSKNTLYLDMNSLRAEDTAVYYAAAAVLLDGSFSLLAPLVPYKYDYWGQGTLVTVS[human IgG4 Fc with S228P (EU numbers) and a few adjoining residues left out here]
With B2, the EC50 came to 0.0199 mg/L.
